31 molecules from paper PMC9911399, “Two distinct binding modes provide the RNA-binding protein RbFox with extraordinary sequence specificity” can be followed below.

T1: RBFOX1 RRM RbFoxmut (Fox-RRM*) (Homo sapiens, UniProt Q9NWB1 109-208, R118D;E147R;N151S;E152T)
T1 sequence: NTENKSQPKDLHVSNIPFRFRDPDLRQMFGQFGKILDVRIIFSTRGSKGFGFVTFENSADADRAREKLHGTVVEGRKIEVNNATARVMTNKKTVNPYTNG

B1: ACAGGCA (DNA:RNA)
RNA: GGGAGACCGGAAUUCAGAUUGUCCACAGGCAUUAAAUCCCGUCGUAGCCACCA
DNA 1: CAATCTGAATTCCGGTCTCCC
DNA 2: TGGTGGCTACGACGGGATT
B2: GCGGAUA (DNA:RNA)
RNA: B1 RNA with A25G, A27G, G29A, C30U
DNA 1: CAATCTGAATTCCGGTCTCCC
DNA 2: TGGTGGCTACGACGGGATT
B3: ACGGGUG (DNA:RNA)
RNA: B1 RNA with A27G, C30U, A31G
DNA 1: CAATCTGAATTCCGGTCTCCC
DNA 2: TGGTGGCTACGACGGGATT
B4: CCACCCC (DNA:RNA)
RNA: B1 RNA with A25C, G28C, G29C, A31C
DNA 1: CAATCTGAATTCCGGTCTCCC
DNA 2: TGGTGGCTACGACGGGATT
B5: CAUGGCU (DNA:RNA)
RNA: B1 RNA with A25C, C26A, A27U, A31U
DNA 1: CAATCTGAATTCCGGTCTCCC
DNA 2: TGGTGGCTACGACGGGATT
B6: UAAAUUG (DNA:RNA)
RNA: B1 RNA with A25U, C26A, G28A, G29U, C30U, A31G
DNA 1: CAATCTGAATTCCGGTCTCCC
DNA 2: TGGTGGCTACGACGGGATT
B7: GUCAGCU (DNA:RNA)
RNA: B1 RNA with A25G, C26U, A27C, G28A, A31U
DNA 1: CAATCTGAATTCCGGTCTCCC
DNA 2: TGGTGGCTACGACGGGATT
B8: GACAGAU (DNA:RNA)
RNA: B1 RNA with A25G, C26A, A27C, G28A, C30A, A31U
DNA 1: CAATCTGAATTCCGGTCTCCC
DNA 2: TGGTGGCTACGACGGGATT
B9: UCGAACC (DNA:RNA)
RNA: B1 RNA with A25U, A27G, G28A, G29A, A31C
DNA 1: CAATCTGAATTCCGGTCTCCC
DNA 2: TGGTGGCTACGACGGGATT
B10: GUGAUCC (DNA:RNA)
RNA: B1 RNA with A25G, C26U, A27G, G28A, G29U, A31C
DNA 1: CAATCTGAATTCCGGTCTCCC
DNA 2: TGGTGGCTACGACGGGATT
B11: AUACUGU (DNA:RNA)
RNA: B1 RNA with C26U, G28C, G29U, C30G, A31U
DNA 1: CAATCTGAATTCCGGTCTCCC
DNA 2: TGGTGGCTACGACGGGATT
B12: CGACCAG (DNA:RNA)
RNA: B1 RNA with A25C, C26G, G28C, G29C, C30A, A31G
DNA 1: CAATCTGAATTCCGGTCTCCC
DNA 2: TGGTGGCTACGACGGGATT
B13: AUAGCGA (DNA:RNA)
RNA: B1 RNA with C26U, G29C, C30G
DNA 1: CAATCTGAATTCCGGTCTCCC
DNA 2: TGGTGGCTACGACGGGATT
B14: UUGCCCG (DNA:RNA)
RNA: B1 RNA with A25U, C26U, A27G, G28C, G29C, A31G
DNA 1: CAATCTGAATTCCGGTCTCCC
DNA 2: TGGTGGCTACGACGGGATT
B15: AAUCGCU (DNA:RNA)
RNA: B1 RNA with C26A, A27U, G28C, A31U
DNA 1: CAATCTGAATTCCGGTCTCCC
DNA 2: TGGTGGCTACGACGGGATT
B16: UUGCAUC (DNA:RNA)
RNA: GGGAGACCGGAAUUCAGAUUGUCCUUGCAUCUUAAAUCCCGUCGUAGCCACCA
DNA 1: CAATCTGAATTCCGGTCTCCC
DNA 2: TGGTGGCTACGACGGGATT
B17: UAUGUGA (DNA:RNA)
RNA: B1 RNA with A25U, C26A, A27U, G29U, C30G
DNA 1: CAATCTGAATTCCGGTCTCCC
DNA 2: TGGTGGCTACGACGGGATT
B18: GUGUUAA (DNA:RNA)
RNA: B16 RNA with U25G, C28U, A29U, U30A, C31A
DNA 1: CAATCTGAATTCCGGTCTCCC
DNA 2: TGGTGGCTACGACGGGATT
B19: CACCAGG (DNA:RNA)
RNA: B16 RNA with U25C, U26A, G27C, U30G, C31G
DNA 1: CAATCTGAATTCCGGTCTCCC
DNA 2: TGGTGGCTACGACGGGATT
B20: CAUGUGG (DNA:RNA)
RNA: B1 RNA with A25C, C26A, A27U, G29U, C30G, A31G
DNA 1: CAATCTGAATTCCGGTCTCCC
DNA 2: TGGTGGCTACGACGGGATT
B21: GAGAUAA (DNA:RNA)
RNA: B1 RNA with A25G, C26A, A27G, G28A, G29U, C30A
DNA 1: CAATCTGAATTCCGGTCTCCC
DNA 2: TGGTGGCTACGACGGGATT
B22: GGUUUUC (DNA:RNA)
RNA: B16 RNA with U25G, U26G, G27U, C28U, A29U
DNA 1: CAATCTGAATTCCGGTCTCCC
DNA 2: TGGTGGCTACGACGGGATT
B23: CCGACUU (DNA:RNA)
RNA: B16 RNA with U25C, U26C, C28A, A29C, C31U
DNA 1: CAATCTGAATTCCGGTCTCCC
DNA 2: TGGTGGCTACGACGGGATT
B24: UCUGAAG (DNA:RNA)
RNA: B1 RNA with A25U, A27U, G29A, C30A, A31G
DNA 1: CAATCTGAATTCCGGTCTCCC
DNA 2: TGGTGGCTACGACGGGATT
B25: CAAAUGG (DNA:RNA)
RNA: B1 RNA with A25C, C26A, G28A, G29U, C30G, A31G
DNA 1: CAATCTGAATTCCGGTCTCCC
DNA 2: TGGTGGCTACGACGGGATT
B26: GACCACC (DNA:RNA)
RNA: B16 RNA with U25G, U26A, G27C, U30C
DNA 1: CAATCTGAATTCCGGTCTCCC
DNA 2: TGGTGGCTACGACGGGATT
B27: CCAGGGA (DNA:RNA)
RNA: B1 RNA with A25C, C30G
DNA 1: CAATCTGAATTCCGGTCTCCC
DNA 2: TGGTGGCTACGACGGGATT
B28: UCUGUUG (DNA:RNA)
RNA: B1 RNA with A25U, A27U, G29U, C30U, A31G
DNA 1: CAATCTGAATTCCGGTCTCCC
DNA 2: TGGTGGCTACGACGGGATT
B29: UCGCAAA (DNA:RNA)
RNA: B16 RNA with U26C, U30A, C31A
DNA 1: CAATCTGAATTCCGGTCTCCC
DNA 2: TGGTGGCTACGACGGGATT
B30: CCGAUUC (DNA:RNA)
RNA: B16 RNA with U25C, U26C, C28A, A29U
DNA 1: CAATCTGAATTCCGGTCTCCC
DNA 2: TGGTGGCTACGACGGGATT
B31: GGCUUCC (DNA:RNA)
RNA: B1 RNA with A25G, C26G, A27C, G28U, G29U, A31C
DNA 1: CAATCTGAATTCCGGTCTCCC
DNA 2: TGGTGGCTACGACGGGATT

Numbering of substitutions follows the chain as printed; changes in the protein carry UniProt numbers. This is one part of the list.

The test has as its target T1, RBFOX1 RRM RbFoxmut (Fox-RRM*). The test is described as follows: EMSA; HiTS-Eq, 1 nM pool, 10 min; buffer printed only for the single-RNA assays: 10 mM Tris pH 7.5, 150 mM NaCl, 3.4 mM EDTA, 0.001% NP-40, 30 C. Conditions: tags: His6 N-terminal (pET28a); label: 5' 32P. The method in brief: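 These values rest on relative association constants, computed from read-count changes of each RNA species versus the control reaction and normalised to the cognate motif. Reads came from free RNA recovered by 8% native PAGE after purified RbFox RRM (wild type or mutant) at increasing concentrations was equilibrated for 10 min in 50 µL with 1 nM of a 5′-radiolabelled pool with 7 randomized nucleotides and DNA-annealed flanks.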
Regarding B1, the binding signal was 0.126 KA relative to UGCAUGU. Next, B2: 0.0859 KA relative to UGCAUGU; B3: 0.153 KA relative to UGCAUGU. Turning to B4, the binding signal was 0.0603 KA relative to UGCAUGU. Next, B5: 0.107 KA relative to UGCAUGU; B6: 0.0911 KA relative to UGCAUGU; B7: 0.076 KA relative to UGCAUGU. Next, B8: 0.0912 KA relative to UGCAUGU; B9: 0.125 KA relative to UGCAUGU; B10: 0.11 KA relative to UGCAUGU. In the case of B11, the binding signal was 0.0933 KA relative to UGCAUGU.

Take B12: the binding signal was 0.0893 KA relative to UGCAUGU. Take B13: the binding signal was 0.0797 KA relative to UGCAUGU. For the molecule B14, the binding signal is 0.178 KA relative to UGCAUGU. With B15, the binding signal is 0.0718 KA relative to UGCAUGU. Next, B16: 0.432 KA relative to UGCAUGU. In the case of B17, the binding signal was 0.0932 KA relative to UGCAUGU. With B18, the binding signal is 0.102 KA relative to UGCAUGU. In the case of B19, the binding signal is 0.0996 KA relative to UGCAUGU.

For B20, the binding signal is 0.06 KA relative to UGCAUGU. Turning to B21, the binding signal is 0.0764 KA relative to UGCAUGU. Next, B22: 0.0911 KA relative to UGCAUGU. Turning to B23, the binding signal was 0.0477 KA relative to UGCAUGU. On to B24, for which the binding signal was 0.0776 KA relative to UGCAUGU.

Regarding B25, the binding signal is 0.07 KA relative to UGCAUGU.

Take B26: the binding signal was 0.0529 KA relative to UGCAUGU. Turning to B27, the binding signal was 0.0632 KA relative to UGCAUGU. On to B28, for which the binding signal is 0.115 KA relative to UGCAUGU. Take B29: the binding signal was 0.0916 KA relative to UGCAUGU.

For the molecule B30, the binding signal is 0.0456 KA relative to UGCAUGU. As to B31, the binding signal was 0.142 KA relative to UGCAUGU.
